According to the supplement of paper PMC4723716:
The full ranking holds about 3,600 compounds; the median of “viability index relative to DMSO control” is about 0.81, and the lowest 2% start at about 0.13. The list shows a part of the results.

Each compound was assayed on Plasmodium falciparum NF54 stage V gametocytes (assay: viability index relative to DMSO control (fraction); higher = less gametocyte killing). Conditions: 1.25 µM, incubation time: 72 h.
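Note: 384-well serum-free SaLSSA: MitoTracker Red CMXRos staining with saponin lysis, high-content imaging, treated-well particle count divided by plate-mean count of DMSO wells.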

| Structure (SMILES) | viability index |
| --- | --- |
| Cc1nc2c(-c3ccccc3)c(C)nn2c(C)c1CC(=O)NCc1ccccn1 | 1.24 |
| CCN1CCN(C(=O)Nc2ccc(Cc3ccc(NC(=O)N4CCN(CC)CC4)cc3)cc2)CC1 | 0.819 |
| CN(C)CCNc1ncnc2c1[nH]c1ccc(Br)cc12 | 0.776 |
| COc1cccc(NC(=O)c2cccc3c(=O)c4c([nH]c23)CCCC4)c1 | 0.94 |
| CN1C=CC(=Cc2sc3ccccc3[n+]2C)C=C1 | 0.788 |
| CCCOC(=O)C1=C(C)NC2=C(C(=O)CC(c3ccc(OC)cc3)C2)C1c1ccccc1F (stereo not given) | 0.421 |
| CN1CCN(c2ccc(Nc3c4ccccc4nc4ccccc34)cc2)CC1 | 0.377 |
| CCOC(=O)c1c(N)n(-c2ccc(NC(=O)c3cccc([N+](=O)[O-])c3)cc2)c2nc3ccccc3nc12 | 1.18 |
| CC1CCN(c2nncc3ccccc23)CC1 | 0.777 |
| c1ccc(-c2cccc(-c3ccccn3)n2)nc1 | 0.904 |
| O=C(NCCCN1CCCCC1)c1ccc2c(c1)sc1nc(-c3ccc(F)cc3)cn12 | 0.96 |
| COC(=O)c1ccccc1NC(=O)CSc1nc2ccsc2c(=O)n1CCN1CCCC1 | 1.12 |
| Cn1nc(C(=O)N2CCCCCC2)c2c1CCC(NCC(C)(C)N1CCOCC1)C2 (stereo not given) | 1.15 |
| Cn1c(SCC(=O)Nc2cccc(F)c2)nc2c(c1=O)SCC2 | 0.843 |
| C=CCN1C=CC(=Cc2sc3ccccc3[n+]2C)c2ccccc21 | 1.07 |
| O=c1[nH]c2cc(Cl)c(Br)nc2[nH]1 | 0.902 |
| Cc1ccc2nc(C)cc(NCCN(C)C)c2c1 | 0.895 |
| Cc1cc(C)c(CSc2ncnc3[nH]cnc23)c(C)c1 | 1.37 |
| CC(Oc1ccc(Cl)cc1Cl)c1nc(-c2ccc(NC(=O)c3ccco3)cc2)no1 (stereo not given) | 0.759 |
| COc1cccc(CNCCCCCCCCCCCCNCc2cccc(OC)c2O)c1O | 0.723 |

| Structure (SMILES) | viability index |
| --- | --- |
| COc1ccc(CNCc2cc(-c3ccnc4cc(Cl)ccc34)ccc2O)c(OC)c1 | 0.75 |
| CCCCOc1ccc(C(=O)Nc2c3c(nn2-c2ccc(C)cc2C)CSC3)cc1 | 0.661 |
| Cc1ccc2ccc(C(Nc3ccccn3)c3ccc(Br)cc3)c(O)c2n1 (stereo not given) | 0.942 |
| CC(CCc1ccccc1)N1CC(c2cccc([N+](=O)[O-])c2)OC1=S (stereo not given) | 0.776 |
| CC(C)OC(=O)NC(Nc1ccccc1)C(Cl)(Cl)Cl (stereo not given) | 1.09 |
| COc1ccc2nc(NC(=O)c3ccc(C#N)cc3)sc2c1 | 0.653 |
| COc1ccc(C(=O)Nc2ccc3nsnc3c2)cc1OC | 0.678 |
| COc1ccc(NC(=O)Cn2c(-c3ccc(OC)cc3)cn(-c3ccc(C)cc3)c2=O)cc1 | 0.815 |
| CCOC(=O)C(Cc1ccc(O)cc1)NC1=CC(=O)C(=O)c2ccccc21 (stereo not given) | 0.799 |
| CC(C)CC[n+]1ccccc1C=Cc1ccc(N(C)C)cc1 | 0.634 |
| O=c1c2[nH]c3ccccc3c2ncn1Cc1ccc2c(c1)OCO2 | 0.991 |
| O=C1CC(c2ccccc2)CC2=C1C(c1ccccc1[N+](=O)[O-])Nc1ccccc1N2 (stereo not given) | 0.849 |
| Cc1nnc(SCC(=O)NCc2ccco2)n1-c1ccc(F)cc1 | 0.837 |
| CCCn1c(=N)c(C(=O)NC(C)c2ccccc2)cc2c(=O)n3cccc(C)c3nc21 (stereo not given) | 0.868 |
| Cc1ccc(Nc2cc(C)nc(NCc3ccccc3)n2)c(C)c1 | 0.707 |
| Cc1nc(N2CCN(C)CC2)c2c(C)c(C(=O)NCCN(C)C)sc2n1 | 0.851 |
| COc1ccc(C(c2ccc(N(C)C)cc2)c2ccc(N(C)C)cc2)cc1 | 0.333 |
| CCOC(=O)c1sc2ncnc(NCc3ccc(F)cc3)c2c1C | 1.14 |
| CSc1nc(N)c2c3c(sc2n1)CCCC3 | 0.599 |
| Cc1ccc(CNC(=O)CCCCCn2c(SCc3cccc([N+](=O)[O-])c3)nc3ccsc3c2=O)cc1 | 0.801 |

| Structure (SMILES) | viability index |
| --- | --- |
| CCCOC(=O)C1=C(C)NC2=C(C(=O)CC(c3ccc(OC)cc3)C2)C1c1ccc(Cl)cc1Cl (stereo not given) | 0.645 |
| O=C1C(Sc2nc[nH]n2)=CC(=NS(=O)(=O)c2cccs2)c2ccccc21 | 0.707 |
| C=CCn1c(SCC(=O)c2cc(C)n(-c3ccccc3F)c2C)nc2sc3c(c2c1=O)CCCC3 | 0.906 |
| Cc1nc(-c2cnccc2C(F)(F)F)sc1C(=O)NN | 1.21 |
| CN(C)CCCN(Cc1cc2cc3c(cc2[nH]c1=O)OCO3)C(=S)Nc1cccc(Cl)c1 | 0.703 |
| O=C(COc1ccccc1)NC(c1ccco1)c1cc(Cl)c2cccnc2c1O (stereo not given) | 1.03 |
| CC(=O)N(C1=C(N(C)C)C(=O)c2ccccc2C1=O)c1ccc(F)cc1 | 0.0453 |
| CN1CCc2c(sc3nc(SCc4ccccc4)n(-c4ccccc4)c(=O)c23)C1 | 0.879 |
| CCOC(=O)c1nc2[nH]c(C)cc(=O)n2n1 | 0.851 |
| COC(=O)c1c(C)oc2ccc(N(C(=O)c3ccc(C)cc3)S(=O)(=O)c3ccccc3)cc12 | 0.891 |
| CCOc1ccc(Nc2nc(NCc3ccco3)c3ccccc3n2)cc1 | 0.731 |
| Cc1nc(CC(=O)N2CCCC(CNC(=O)C3(c4ccc(Cl)cc4)CC3)C2)cs1 (stereo not given) | 0.74 |
| CCOc1cc(Br)cc(C=NNC(=O)COc2cccc(C)c2)c1O | 1.03 |
| NS(=O)(=O)c1ccc(N/C=C/C(=O)c2ccc(Cl)s2)cc1 | 1.13 |
| CCN1C(=Cc2ccc3ccccc3[n+]2CC)C=Cc2sc3ccccc3c21 | 0.425 |
| CC1(C)N=C(N)N=C(N)N1c1ccc(F)cc1 | 1.05 |
| COc1cc(Cl)c(C)cc1NC(=O)C1c2ccccc2C(=O)N(CC(C)C)C1c1cccs1 (stereo not given) | 0.398 |
| CN1C=CC=CC1=CC=C1C=Nc2ccccc21 | 0.778 |
| CSc1nnc(-c2cccc([N+](=O)[O-])c2)n1Cc1ccccc1 | 1.01 |
| CC1CCCN(C(=O)C2CCN(Cc3ccccn3)CC2)C1 (stereo not given) | 1.01 |
